Test results published in PubChem BioAssay AID488969 (Vanderbilt High Throughput Screening Facility, 2010).
In all, about 110,000 compounds were measured (“z-score”: median about -0.1, highest 2% from about 2 on). Some of the results follow. Activity calls are given as the source filed them.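 The calls were made as follows: active = z-score in the third read window above 3 or below -3; inactive = the rest.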

Target: Metabotropic glutamate receptor 8 (Rattus norvegicus) (UniProt P70579)
Assay: rat mGluR8 modulators via GIRK flux, primary screen, cell-based, thallium flux, HTS (AID 488969)
Conditions: HEK293 rat mGluR8, GIRK (G protein-gated inwardly rectifying potassium channel) thallium flux, FluoZin2; at 10 µM; stronger effect = higher value; submaximal glutamate (EC20) added with thallium

Chain of UniProt P70579 (P70579 whole entry, looked up): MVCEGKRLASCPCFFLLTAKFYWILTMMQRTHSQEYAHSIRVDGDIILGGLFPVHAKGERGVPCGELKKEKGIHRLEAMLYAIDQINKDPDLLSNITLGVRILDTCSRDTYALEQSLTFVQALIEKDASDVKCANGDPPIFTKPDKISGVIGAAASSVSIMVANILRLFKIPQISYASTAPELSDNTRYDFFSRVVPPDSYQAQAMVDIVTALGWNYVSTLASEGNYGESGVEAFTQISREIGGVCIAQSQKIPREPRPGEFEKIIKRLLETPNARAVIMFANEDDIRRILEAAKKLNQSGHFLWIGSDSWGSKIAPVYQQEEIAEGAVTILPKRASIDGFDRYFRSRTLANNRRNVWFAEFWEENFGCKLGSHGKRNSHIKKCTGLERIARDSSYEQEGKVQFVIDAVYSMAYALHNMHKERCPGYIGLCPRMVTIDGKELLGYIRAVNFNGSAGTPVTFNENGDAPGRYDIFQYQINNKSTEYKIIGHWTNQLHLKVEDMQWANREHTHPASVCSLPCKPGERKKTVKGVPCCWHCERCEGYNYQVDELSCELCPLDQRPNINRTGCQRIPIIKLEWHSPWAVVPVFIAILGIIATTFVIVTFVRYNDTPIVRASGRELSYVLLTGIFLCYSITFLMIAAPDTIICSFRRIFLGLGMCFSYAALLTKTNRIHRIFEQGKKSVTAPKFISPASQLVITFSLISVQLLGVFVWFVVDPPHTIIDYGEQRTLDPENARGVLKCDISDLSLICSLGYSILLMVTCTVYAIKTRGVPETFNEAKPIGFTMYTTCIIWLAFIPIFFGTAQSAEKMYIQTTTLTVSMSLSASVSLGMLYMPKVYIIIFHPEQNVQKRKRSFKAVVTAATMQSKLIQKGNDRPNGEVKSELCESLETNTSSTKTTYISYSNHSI

Structure (SMILES) | z-score
CCOC(=O)C1=C(N)OC2=C(C(=O)CC(C)(C)C2)C1c1cccs1 (stereo unspecified) | -0.546
Cc1ccc(S(=O)(=O)N2CCCC2C(=O)NCc2ccco2)cc1 (stereo unspecified) | 0.608
C=CCn1c(-c2csc3c2CCC(C)C3)n[nH]c1=S (stereo unspecified) | 0.494
O=C1C(c2cc(=O)c3ccccc3[nH]2)=C(O)c2ccccc21 | -0.218
O=C(CCc1nc2ccccc2n1-c1ccccc1)NCCO | -0.0451
CCCN1C(=O)N(C)C(N(O)C(=O)NC)C1(C)C (stereo unspecified) | 0.256
Cc1ccc(C(O)(c2ccccc2)c2ccccc2C(C)N(C)C)c(C)c1 (stereo unspecified) | 0.319
Cc1ccccc1N1CCN(CCCOc2ccc3c(C)cc(=O)oc3c2)CC1 | 0.285
N/C(=N\OC(=O)COc1ccccc1)c1ccc(Cl)cc1 | -0.224
Cn1c(=O)c2c(nc(N3CCN(c4ccccc4)CC3)n2CCCc2ccccc2)n(C)c1=O | 0.204
Cc1onc(-c2c(F)cccc2Cl)c1C(=O)NC(=S)NC1CCSC1=O (stereo unspecified) | -0.17
COC(=O)c1ccccc1NC(=O)NCc1ccco1 | 0.182
CC(=O)c1c(N2CCCC2)nc(=S)n(-c2ccccc2)c1C | -0.0779
O=C(CSc1ccc2nnc(-c3ccccn3)n2n1)N1CCOCC1 | -0.254
COc1cc2[nH]c(=S)n(CCN3CCOCC3)c(=O)c2cc1OC | -0.262
Cn1ncc2c(=O)n(CC(=O)NC34CC5CC(CC(C5)C3)C4)cnc21 | -0.265
CCOc1ccc(NC(=O)CN(C)c2ccc(S(=O)(=O)N(C(C)C)C(C)C)cn2)cc1OCC | -1.25
O=C(O)CCC(=O)NCc1ccc(C(=O)O)cc1 | 0.0322
COC(=O)c1cc(S(=O)(=O)N2CCC(C)CC2)ccc1F | 0.00732
COc1cc(-c2nnc(-c3cc(OC)c(OC)c(OC)c3)o2)cc(OC)c1OC | -1.02
CC1CCCN(CCCNC(=O)c2coc3nc4ccccc4nc23)C1 (stereo unspecified) | 0.00229
OC1(c2ccc3ccccc3c2)CCN(Cc2ccccc2)C1 (stereo unspecified) | 2
Cc1cc(N2CCN(C)CC2)nc2ccc(NC(=O)CCC(=O)NCCC3=CCCCC3)cc12 | -2.01
COC(=O)c1ccc(Sc2ccccn2)c([N+](=O)[O-])c1 | -0.0262

Structure (SMILES) | z-score
C=CCc1cccc2cc(C(=O)NC3=C(C#N)CCC3)c(=O)oc12 | 1.03
COc1ccccc1NC(=O)CCn1c(=O)sc2ccccc21 | 0.642
CCC(=O)Nc1cc(C)c(NC(=O)c2ccco2)cn1 | -0.0069
COC(=O)c1ccc(-n2nnnc2SCc2nn[nH]n2)cc1 | -0.35
CC(Sc1cnc2ccccc2n1)C(=O)O (stereo unspecified) | 0.0744
CC(C)Cn1c2c(c(O)c(C(=O)Nc3ncccc3O)c1=O)CCCC2 | active: -4.45
OC1(c2cccc(C(F)(F)F)c2)CCN(Cc2nnnn2CCc2ccccc2)CC1 | -0.00667
CC1CCCCN1CCNC(=O)CC1Oc2ccccc2NC1=O (stereo unspecified) | -0.354
CCOc1ccc(NC(=O)CN2C(=O)C3CC=CCC3C2=O)cc1 (stereo unspecified) | 0.437
C#CCOC(=O)Nc1ccc(=O)n(Cc2c(Cl)cccc2Cl)c1 | -0.298
O=C1CC(c2ccco2)Cc2nc(N3CCN(Cc4ccc5c(c4)OCO5)CC3)ncc21 (stereo unspecified) | -0.464
O=C(c1ccccc1)c1ccc(C(=O)N2CCN(c3ccc(F)cc3)CC2)o1 | -1.82
COc1ccc(NC(=O)Nc2ccccc2C(N)=O)cc1OC | 0.255
CCn1c(=O)c([N+](=O)[O-])c(NCCc2ccc(OC)c(OC)c2)c2ccccc21 | -0.238
C=CCC1c2cccc(C(=O)O)c2C(=O)N1c1ccc(F)cc1 (stereo unspecified) | -0.403
O=C1/C(=C\c2ccccc2Cl)SC(=S)N1CCC(=O)N1CCCc2ccccc21 | -0.0232
O=C(/C=C/c1c(Cl)cccc1Cl)Nc1ccncc1 | -0.208
Cc1cc(Br)ccc1OCCCCNCCO | 0.946
O=C(NCCCN1CCOCC1)c1c(O)c2cc(Br)cc(Br)c2[nH]c1=O | -0.0609
Cc1c(C(c2cccc(O)c2)c2c(C)n(C)n(-c3ccccc3)c2=O)c(=O)n(-c2ccccc2)n1C | -0.297
Cc1c(C(=O)NCCCN2CCCC2=O)oc2ccccc12 | -0.3
COc1cccc(-n2c(Cc3cc(=O)[nH]c(=O)[nH]3)nnc2SCC(=O)NC2CCCCC2)c1 | -0.198
Cc1ccc(S(=O)(=O)ON2C(=O)c3cccc4cccc(c34)C2=O)cc1 | -0.368
Cc1ccc(-c2nnc3ccc(SCC(=O)N4CCc5ccccc54)nn23)cc1 | -0.87

Structure (SMILES) | z-score
COC(=O)c1cc(NS(=O)(=O)c2ccc(N3CCCCC3)c([N+](=O)[O-])c2)cc(C(=O)OC)c1 | -0.0899
O=C(NC1(C(F)(F)F)N=C2SCCN2C1=O)c1cccnc1 (stereo unspecified) | -0.234
N#Cc1ccccc1NC(=O)Nc1cccc(Cl)c1 | 0.496
Cc1cc(C)cc(N(CCC(=O)O)S(=O)(=O)c2ccc(Cl)cc2)c1 | 0.192
O=C(NCc1ccco1)C1CC(=O)N(c2ccc(O)cc2)C1 (stereo unspecified) | -0.378
Cc1cccc(Oc2ncnc(N)c2[N+](=O)[O-])c1C | -0.172
Cc1cc(NC(=O)CSc2nc3ccc(Cl)cc3[nH]2)no1 | 0.0229
Cc1cc(C)c2c(C)c(C(=O)NCc3ccncc3)oc2c1 | -2.52
CCC(C(=O)Nc1ccncc1)c1ccccc1 (stereo unspecified) | -0.281
NC(=O)CSc1nnc(Cc2cccs2)n1C1CCCCC1 | -0.113
COc1ccccc1C1CC(c2ccco2)=NN1c1ccccc1 (stereo unspecified) | -0.166
Cc1ccc2nc(-c3ccc(SCC(=O)Nc4nc(C)cs4)nc3)[nH]c2c1 | 0.228
O=C(Cc1ccc(Cl)cc1Cl)Nc1cccc(S(=O)(=O)Nc2ccccc2F)c1 | 0.85
CONC(=O)Nc1ccccc1[N+](=O)[O-] | 1.4
Cc1cccc(NC(=O)CC2NCCNC2=O)c1 (stereo unspecified) | -0.726
COc1ccc(-c2cc(C(=O)O)c3sc(N4CCCCC4)nc3n2)cc1OC | 0.117
N=c1c(C(=O)NCc2ccc(F)cc2)cc2c(=O)n3ccccc3nc2n1CC1CCCO1 (stereo unspecified) | 0.184
CCOc1cccc2cc(C(=O)Nc3nccs3)c(=O)oc12 | -0.156
C/C(=N\NC(=O)c1ccc(OC2CCCC2)cc1)c1ccc(C)s1 | 1.05
Cc1ccc(-c2cc(C(=O)NCc3ccco3)no2)cc1 | 0.0404
Cc1ccccc1-n1nc(C(=O)c2cccs2)cc(-c2nc3ccccc3[nH]2)c1=N | -0.286
COc1ccc(S(=O)(=O)Nc2cc3c4c(oc3c3ccccc23)CC(C)(C)CC4=O)cc1 | -0.212
CCn1cc(C(=O)C(F)(F)F)c2ccccc21 | -0.0439
